Experimental data as given in the BET-seq Pho4 binding data (Le et al. 2018).
This is one part of the list. These are noisy estimates, calculated here from bound and input reads.

These sequences were tested against T1, Pho4 (S. cerevisiae) (UniProt P07270) (assay: relative binding free energy (BET-seq); higher = weaker binding). Details: reference: library average.
T1 sequence: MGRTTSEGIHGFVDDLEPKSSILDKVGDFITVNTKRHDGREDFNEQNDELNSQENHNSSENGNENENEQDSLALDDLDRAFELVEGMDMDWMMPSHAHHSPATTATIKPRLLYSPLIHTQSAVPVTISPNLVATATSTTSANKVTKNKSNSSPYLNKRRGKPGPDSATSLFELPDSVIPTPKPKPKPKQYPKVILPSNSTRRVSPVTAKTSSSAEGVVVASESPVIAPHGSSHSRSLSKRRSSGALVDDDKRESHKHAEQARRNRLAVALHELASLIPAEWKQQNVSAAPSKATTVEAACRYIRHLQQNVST

Sequence | relative binding free energy [kcal/mol]
TGGACCACGTGGGGTA | -0.21
TACAGCACGTGTTGCT | 0.09
ATGCGCACGTGAGGGC | 0.08
ATTAGCACGTGAGGAA | 0.16
AGAGGCACGTGTTGGG | -0.02
TTCGGCACGTGTGAAT | 0.09
GTTTTCACGTGACGGG | 0.31
AGGGACACGTGATCGT | 0.15
TGTGCCACGTGTATAT | -0.18
ATGTGCACGTGTTTAG | 0
TGCGGCACGTGTACGG | -0.06
ATAATCACGTGCGTGG | 0.13
TGAGTCACGTGTGATA | 0.15
TTAGTCACGTGCGGTT | 0.08
AGCGTCACGTGGGAGA | -0.01
GGTGGCACGTGGCGTC | -0.05
GTATCCACGTGGGAGT | -0.07
TGGGCCACGTGAGAGA | 0.23
GCTCGCACGTGGCTGG | 0.07
ATGTTCACGTGGAGGG | 0.27

Sequence | relative binding free energy [kcal/mol]
GAGAGCACGTGGGCTT | -0.08
TGTTGCACGTGGAAGC | 0.02
GAGTTCACGTGGAGGA | 0.27
GGGCACACGTGGGCTG | -0.09
TGTGACACGTGTATCG | 0.21
TAGAACACGTGGCGGT | -0.02
CGAATCACGTGTGAGG | 0.23
TGCCTCACGTGTGTTA | 0.19
TGTAGCACGTGAGTGG | 0.09
ATTTACACGTGTGGGG | 0.03
GAGAACACGTGGGGGC | 0.02
TAATGCACGTGCGGGA | -0.11
TGGGACACGTGGAAGT | 0.12
GGAGTCACGTGTGGAG | 0.23
GAAGCCACGTGGGGTT | -0.14
TAGGTCACGTGCTTAA | 0.09
CGGTGCACGTGATGGT | 0.08
CGGTGCACGTGAATAT | 0.49
TATGACACGTGTAGAG | 0.09
TAATACACGTGTGTAT | 0

Sequence | relative binding free energy [kcal/mol]
CTGGTCACGTGTTGCG | 0
TAGGGCACGTGTATTC | -0.17
GTGGGCACGTGGATGT | -0.16
AAAGTCACGTGTTATG | 0.07
GTCTGCACGTGGTCTT | 0.07
AAACTCACGTGGTGTG | 0.19
GTAGGCACGTGTTTTA | 0.05
TGTGCCACGTGGAGGA | -0.11
TGTATCACGTGCGGCG | 0.21
TTCGTCACGTGTATTA | 0.06
GTCATCACGTGGGTGA | 0.04
AATCACACGTGGTGGG | 0.02
CGGGGCACGTGGGATA | -0.08
GAGTACACGTGTGGGA | 0.19
ATGGTCACGTGACTTG | 0.38
GTTGGCACGTGGCTTA | -0.23
GGGTGCACGTGCGGGC | -0.12
GAGATCACGTGTAATG | 0.26
